Data published in PubChem BioAssay AID1645887 (National Center for Advancing Translational Sciences (NCATS), 2021).
Where “and” joins values, the source holds several entries; their conditions need not be identical. Equal entries are not always repeated. The campaign covered roughly 16,000 compounds. About 40 (0.2%) were called active. About 1% were inconclusive and are not listed. Calls come from the whole dose curve; as a rule, active = well fitted activation curve with a large enough effect; inconclusive = small, poorly fitted or top-dose-only effect, or another doubt; inactive = no such curve, though single readings can be large or run the other way. Some of the results follow.

These compounds were tested against Rap guanine nucleotide exchange factor 4 (Homo sapiens) (UniProt Q8WZA2) (assay: Validation qHTS for agonist of cAMP-regulated guanine nucleotide exchange factor 4 (EPAC2)). Conditions: EPAC2 Rap1B BODIPY-GDP exchange, fluorescence; activation: active compounds read high.
UniProt Q8WZA2, sequence (Q8WZA2 whole entry, looked up): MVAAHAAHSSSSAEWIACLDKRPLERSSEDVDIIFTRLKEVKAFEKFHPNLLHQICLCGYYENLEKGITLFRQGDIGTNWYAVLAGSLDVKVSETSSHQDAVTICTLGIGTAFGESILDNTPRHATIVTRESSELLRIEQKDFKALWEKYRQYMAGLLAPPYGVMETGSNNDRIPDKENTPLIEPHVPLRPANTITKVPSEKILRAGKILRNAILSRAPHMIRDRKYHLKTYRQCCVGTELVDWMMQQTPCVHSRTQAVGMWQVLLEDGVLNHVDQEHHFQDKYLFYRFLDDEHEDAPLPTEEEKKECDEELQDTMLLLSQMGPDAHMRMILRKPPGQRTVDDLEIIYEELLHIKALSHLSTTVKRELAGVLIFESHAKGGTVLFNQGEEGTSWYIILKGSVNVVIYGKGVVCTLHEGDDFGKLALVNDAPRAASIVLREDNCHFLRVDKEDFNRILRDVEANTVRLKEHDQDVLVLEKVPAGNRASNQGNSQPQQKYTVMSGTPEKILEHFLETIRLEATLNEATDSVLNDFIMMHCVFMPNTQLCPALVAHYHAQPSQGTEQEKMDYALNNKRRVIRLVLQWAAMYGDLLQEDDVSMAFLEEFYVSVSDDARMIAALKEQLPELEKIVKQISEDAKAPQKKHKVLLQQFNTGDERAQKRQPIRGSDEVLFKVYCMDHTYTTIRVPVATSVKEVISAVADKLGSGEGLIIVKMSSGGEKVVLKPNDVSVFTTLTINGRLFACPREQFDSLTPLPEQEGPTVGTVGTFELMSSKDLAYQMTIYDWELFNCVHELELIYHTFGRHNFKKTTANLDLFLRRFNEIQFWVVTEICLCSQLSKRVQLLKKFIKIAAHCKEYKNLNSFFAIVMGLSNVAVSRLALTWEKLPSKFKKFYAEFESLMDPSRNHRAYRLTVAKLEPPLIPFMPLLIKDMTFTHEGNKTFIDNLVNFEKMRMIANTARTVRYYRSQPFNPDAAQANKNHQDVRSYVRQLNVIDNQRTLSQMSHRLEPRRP
In short: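 Signal normalized against 6.5 mM cAMP as agonist control. Mix of EPAC2 (100 nM), RAP1B-BODIPY-GDP (250 nM) and GDP (50 uM) was read kinetically at 480/540 nm, every 5 min over 30 min, after 5 min room-temperature incubation with compound.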
% is set by controls: 0 for no effect and ±100 for the full control effect.
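Note: exchange makes BODIPY-GDP fluorescence drop when released from Rap1B; series mostly up to about 150 µM.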

Row | SMILES | activation
1 | Cc1ccc(S(=O)(=O)N[C@@H](CCCCN)C(=O)CCl)cc1 | inactive: -5.83% and inactive: -71.6%
2 | CCCN1CCC[C@@H](c2cccc(O)c2)C1 | inactive: -16.6%
3 | C/C(=C\[C@@H](N)C(=O)O)CP(=O)(O)O | inactive: 15.9%
4 | CC1/C=C/C=C/CC/C=C/C=C/C=C/C=C/C(OC2OC(C)C(O)C(N)C2O)CC2O[C@](O)(CC(O)C(O)CCC(O)CC(O)CC(O)CC(=O)OC(C)C(C)C1O)CC(O)C2C(=O)O (some centres undefined) | inactive: 4.57%
5 | O=C1CN=C(c2ccccc2)c2cc([N+](=O)[O-])ccc2N1 | inactive: -24.6%
6 | CC[C@]12CCCN3CCC4(c5ccccc5NC4C(C(=O)O)C1)C32 (some centres undefined) | inactive: -27.5%
7 | C[C@]12CCC(=O)C=C1CCc1ccc(O)cc12 | inactive: -6.53%
8 | Clc1ccc(N2CC3CCC(C2)N3)nn1 | inactive: -40.9%
9 | CCCCCN(C)CCC(O)(P(=O)(O)O)P(=O)(O)O | inactive: -5.23% and inactive: -20%
10 | Cc1cccc(C)c1NC1=NCCCS1 | inactive: 16.4% and inactive: 18.9% and inactive: -40.1%
11 | Nc1ccc(N)cc1 | inactive: -17.1%
12 | COc1ccc2c(c1O)-c1cc(O)cc3c1[C@@H](C2)N(C)CC3 | inactive: 6.95%
13 | CC(=O)O[C@H]1C[C@H](O[C@H]2[C@@H](O)C[C@H](O[C@H]3[C@@H](O)C[C@H](OC4CC[C@@]5(C)[C@H](CC[C@@H]6[C@@H]5CC[C@]5(C)[C@@H](C7=CC(=O)OC7)CC[C@]65O)C4)O[C@@H]3C)O[C@@H]2C)O[C@H](C)[C@H]1O[C@@H]1O[C@H](CO)[C@@H](O)[C@H](O)[C@H]1O (some centres undefined) | inactive: -6.18%
14 | CC(C)C[C@H]1C(=O)N2CCC[C@H]2[C@]2(O)O[C@](NC(=O)[C@@H]3C[C@@H]4c5cccc6[nH]cc(c56)C[C@H]4N(C)C3)(C(C)C)C(=O)N12 | inactive: 7.01%
15 | CCC(N)Cc1c[nH]c2ccccc12 (centres undefined) | inactive: -4.8% and inactive: -19.5%
16 | O=c1cccc2n1CC1CC2CN(CCO)C1 (centres undefined) | inactive: -9.32%
17 | C[C@@H]1O[C@@H](O[C@H]2C[C@@H](O)[C@]3(CO)[C@@H]4C(CC[C@]3(O)C2)[C@@]2(O)CC[C@H](C3=CC(=O)OC3)[C@@]2(C)C[C@H]4O)[C@H](O)[C@H](O)[C@H]1O (some centres undefined) | inactive: 10.9% and inactive: -11.2%
18 | CC(C)(O)[C@H]1O[C@@H]2CC[C@]3(C)[C@@]4(C)c5[nH]c6ccccc6c5C[C@@H]4CC[C@]3(O)C2=CC1=O | inactive: -37.9%
19 | CN1CCc2cc3c(cc2C1C1OC(=O)c2c1ccc1c2OCO1)OCO3 (centres undefined) | inactive: -3.64% and inactive: 16.2%
20 | CC[C@H](Oc1ccc(Cl)cc1)C(=O)OC1C[C@H]2CC[C@@H](C1)N2C (some centres undefined) | inactive: -7.14%

Row | SMILES | activation
21 | CCCCC/C=C\C/C=C\C/C=C\C/C=C\CCCC(=O)Nc1ccc(O)cc1 | inactive: -58.9%
22 | O=C(/C=C\c1ccc(Cl)cc1)N[C@@]12CCC(=O)[C@@H]3Oc4c(O)ccc5c4[C@@]31CCN(CC1CC1)[C@@H]2C5 | inactive: -14.3%
23 | CCNC(=O)[C@H]1O[C@@H](n2cnc3c(N)ncnc32)[C@H](O)[C@@H]1O | inactive: -6.22% and inactive: -6.21% and inactive: -31.1%
24 | COc1ccc(C[C@H]2NC[C@H](O)[C@@H]2OC(C)=O)cc1 | inactive: -11.8%
25 | O=C(O)/C=C\CO | inactive: -5.88%
26 | C[C@@H]1[C@@H]2Cc3ccc(O)cc3[C@@]1(C)CCN2CCc1ccccc1 | inactive: 0.171%
27 | [N-]=[N+]=NCCN1CCC(O)CCC1=O (centres undefined) | inactive: -26.2%
28 | CC(=O)Oc1ccc(Cl)c2cccnc12 | inactive: -5.48%
29 | COc1ccc(C(=O)c2c(C)n(CCN3CCOCC3)c3cc(I)ccc23)cc1 | inactive: 6.23%
30 | O=S(=O)(c1ccc(Cl)cc1)c1ccc(Cl)cc1 | inactive: -20.2%
31 | c1ccc(N2CCC3(CCNCC3)CC2)cc1 | inactive: 4.43%
32 | COC(=O)C(Cl)C(=O)OC | inactive: -20.1%
33 | O=C(c1ccncc1)N1CCC2(CC1)CN(Cc1ccccc1)C2 | inactive: -10.5%
34 | CN1CC[C@@]2(C)c3cc(OC(=O)Nc4ccccc4)ccc3N(C)[C@@H]12 | inactive: 4.17% and inactive: -19%
35 | Oc1ccc(Cl)cc1 | inactive: -20.1% and inactive: 5.79%
36 | CC(C)c1c(CN(C)C(C)Cc2ccccc2)n(C)n(-c2ccccc2)c1=O (centres undefined) | inactive: -1.26%
37 | N#CCCN | inactive: -28.7%
38 | CCCCCCCCCCCCCC(=O)O[C@@H]1[C@@H](C)[C@@]2(O)[C@@H](C=C(CO)C[C@@]3(O)C(=O)C(C)=C[C@@H]23)C2C(C)(C)[C@@]21OC(C)=O (some centres undefined) | inactive: -81.7%
39 | C[C@]12CC[C@@H](O)C[C@H]1CC[C@@H]1[C@H]2CC[C@]2(C)C(=O)CC[C@@H]12 | inactive: -0.28%
